Results on 96 molecules are retold here after PubChem BioAssay AID485344 (National Center for Advancing Translational Sciences (NCATS), 2010).

For orientation: inhibition means the relative decrease from the control value, in per cent.

Values joined by “and” are separate entries in the source; they are usually repeats but may differ in a detail not shown here. Equal values may be shown once. Among all 340,000 compounds or so, about 6,900 (2%) were called active. No stated cut-off is given here; in the data, active means inhibition above about 30%; inactive means below that, where a call was filed. The list shows a part of the results, in another mix than the full data. The source gives no active or inactive call for entries shown without one.

Chain of UniProt P14416 (P14416 whole entry, looked up): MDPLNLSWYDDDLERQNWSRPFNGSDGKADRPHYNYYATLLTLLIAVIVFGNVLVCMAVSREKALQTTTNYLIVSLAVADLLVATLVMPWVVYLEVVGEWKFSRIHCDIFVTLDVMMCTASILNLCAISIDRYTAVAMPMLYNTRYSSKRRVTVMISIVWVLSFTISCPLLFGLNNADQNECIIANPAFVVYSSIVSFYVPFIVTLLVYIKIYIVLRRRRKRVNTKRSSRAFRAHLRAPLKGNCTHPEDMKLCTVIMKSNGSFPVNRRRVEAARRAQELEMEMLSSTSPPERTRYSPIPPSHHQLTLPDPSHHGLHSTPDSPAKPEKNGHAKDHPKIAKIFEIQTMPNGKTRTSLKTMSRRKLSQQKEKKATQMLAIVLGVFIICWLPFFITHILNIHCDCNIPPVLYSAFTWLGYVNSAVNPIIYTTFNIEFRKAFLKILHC

For the test, the target named is D(2) dopamine receptor (Homo sapiens) (UniProt P14416). Briefly: HTS Assay for Allosteric Antagonists of the Human D2 Dopamine Receptor: Primary Screen for Antagonists. Further: 0% is about no effect. The note with it: HEK293 TREx D2 cells, calcium flux, dopamine EC80; at 10 µM; stronger effect = higher value. In outline:
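Antagonism is scored as inhibition of an EC80 dopamine-evoked calcium signal in a force-coupled, tetracycline-inducible HEK293 T-REx D2 line, with compound present 180 s before agonist.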
(In general: Calcium assays in cells follow changes in intracellular calcium, usually with a dye or a luminescent sensor.)
Regarding `CCOc1cc2[nH]c(=O)n(CCCC(=O)NCc3ccc(OC)cc3)c(=O)c2cc1OCC`, the inhibition is 9.99%.

For `COc1ccc(-n2ccn(CC(=O)Nc3ccc(C)c(C)c3)c(=O)c2=O)cc1OC`, the inhibition is -11%.

As to `Cc1ccc(F)cc1NC(=O)CCSc1nc(-c2ccco2)cc(C(F)(F)F)n1`, the inhibition came to 6.89%.

Regarding `CC1CCCN(S(=O)(=O)c2cc(C(=O)NCc3ccccc3Cl)n(C)c2)C1` (stereo unspecified), the inhibition stood at 11.8%.

With `Cc1ccc(NC(=O)C(=O)NCC(c2cccnc2)N2CCc3ccccc3C2)cc1` (stereo unspecified), the inhibition amounted to 4.24%.

On to `C=Cc1ccc(Cn2c(C(=O)O)c(CNCc3ccccc3)c3ccc(OC)cc32)cc1`, for which the inhibition was -4.25%.

Turning to `CCc1ccc(Nc2sc(C(=O)c3ccccc3)c(N)c2S(C)(=O)=O)cc1`, the inhibition was -1.77%.

`Cc1ccc(CSc2nc(-c3ccc(C(C)(C)C)cc3)nc3cc(=O)[nH]n23)cc1`: the inhibition is -3.2%.

`CCOCCc1nn2c(=O)cc(COC(=O)CNC(=O)c3ccc(F)cc3)nc2s1`: the inhibition is 1.28%.

In the case of `CCOc1ccc(CC(=O)NCCc2csc(-c3ccc(Cl)cc3)n2)cc1`, the inhibition was -13.2%.

`COc1cc(C(CC(=O)Nc2cc(C)ccc2C)N2Cc3ccccc3C2=O)cc(OC)c1OC` (stereo unspecified): the inhibition worked out at 0.587%.

On to `CN(Cc1ccccc1)C(=O)c1cccc(NC(=O)c2nsc3ccccc23)c1`, for which the inhibition is -6.9%.

Consider `CN(CCCOc1ccccc1Br)Cc1ccccc1`, for which the inhibition was active: 38.5%.

Regarding `CC(=O)c1ccc(NC(c2ccc(F)cc2)c2nnc(-c3ccccc3)o2)cc1` (stereo unspecified), the inhibition was 15.8%.

Consider `CC(C)(C)OC(=O)N1CCC(c2c(C(=O)N3CCN(c4ccccn4)CC3)cnn2-c2ccccc2Cl)CC1`, for which the inhibition is -1.24%.

Take `CCOCCCNC(=O)c1cn(CC)c2ccc(S(=O)(=O)N3CCc4ccccc4C3)cc2c1=O`: the inhibition came out at 7.83%.

Take `CCOC(=O)c1[nH]c(C)c(CCC(=O)N2CCN(c3cccc(C)c3C)CC2)c1C`: the inhibition was 6.71%.

As to `Cc1ccc2nc(-c3ccncc3)c(Nc3ccc(C(C)C)cc3)n2c1`, the inhibition is -1.14%.

Take `Cc1ccc(CN2CCC(C(=O)NCCC(C)C)CC2)o1`: the inhibition is active: 30.1%.

As for `O=C(NCc1ccc(F)cc1)C1CCN(c2ncnc3c2nc2n3CCCCC2)CC1`, the inhibition is 12.5%.

As for `COc1ccc(CNC(=O)c2ccc3c(c2)N(Cc2ccccc2C)C(=O)c2ccccc2S3=O)cc1` (stereo unspecified), the inhibition amounted to 7.48%.

As for `COc1ccc(CNc2oc(/C=C/c3cccc(OC)c3)nc2C#N)cc1`, the inhibition is 0.71%.

Consider `CCN1C(=O)C(CC(=O)Nc2ccc(OC)cc2)N(CCCN2CCN(c3ccc(F)cc3)CC2)C1=S` (stereo unspecified), for which the inhibition was active: 57.4%.

Consider `COc1ccc(OC)c(CNC(=O)c2c(C)oc3ncn(C)c(=O)c23)c1`, for which the inhibition was 5.66%.

Turning to `O=C(c1ccc2c(c1)CCN2S(=O)(=O)c1ccc(Cl)cc1)N1CCN(c2ccccc2)CC1`, the inhibition is -5.85%.

In the case of `CCOc1ccc(CN2C(=O)c3ccccc3Sc3ccc(C(=O)OC)cc32)cc1`, the inhibition came out at 9.26%.

Consider `COc1ccc(N2CC(NC(=O)c3ccco3)CC2=O)cc1OC` (stereo unspecified), for which the inhibition is -5.82%.

On to `O=S(=O)(Nn1cnnc1)c1ccccc1Cl`, for which the inhibition is active: 30.4%.

Regarding `CCn1c(SCc2ccc(F)cc2Cl)nc(=O)c2c(C(=O)OC)cc(C3CC3)nc21`, the inhibition was determined as 8.73%.

For `Cc1ccc(CNC(=O)c2cc(-c3ccc(C)cc3)nc3n[nH]c(-c4ccc(F)cc4)c23)cc1`, the inhibition came to 21.1%.

`CCOC(=O)C1CCN(S(=O)(=O)c2ccc(N3CCCCS3(=O)=O)cc2)CC1`: the inhibition is -2.14%.

`COc1ccc(OCC2c3cc(OC)c(OC)cc3CCN2C(=O)COc2ccc(Cl)cc2Cl)cc1` (stereo unspecified): the inhibition is -2.28%.

As to `CC(C)c1ccc2occ(CC(=O)Nc3ccccc3Cl)c2c1`, the inhibition came out at 2.31%.

With `COc1ccc(Cn2ccc3nc(C)c(C(=O)N4CCN(c5ccccc5OC)CC4)cc3c2=O)cc1`, the inhibition was determined as 12.3%.

For `CC(C)NC(=O)C(c1ccccc1)N1Cc2ccccc2C1=O` (stereo unspecified), the inhibition is -4.44%.

As to `CC1=C(C(N)=O)C(c2cccc(C)c2)n2nc(-c3cccc(C)c3)nc2N1` (stereo unspecified), the inhibition came to 12.8%.

Consider `Cc1ccc(C)c(NC(=O)Cn2c(=O)n(Cc3ccc4c(c3)OCO4)c(=O)c3oc4ccccc4c32)c1`, for which the inhibition was -12%.

Turning to `Cc1ccc(SCC(=O)OCC(=O)N(C)CC(=O)Nc2ccccc2Cl)cc1C`, the inhibition is active: 33.3%.

As for `Cc1ccc(CSc2nnc(-n3c(=O)c(C#N)cc4c(=O)n5cc(C)ccc5nc43)s2)cc1`, the inhibition stood at 0.615%.

In the case of `COc1ccc(-c2noc(CSc3nc(C)cc(=O)[nH]3)n2)cc1OC`, the inhibition was -0.39%.

Consider `Cc1ccc(N(Cc2cc3ccccc3[nH]c2=O)C(=O)c2cccc(Cl)c2)cc1`, for which the inhibition is -6.91%.

`Cc1ccc(-c2cn3c(n2)sc2cc(C(=O)NCc4cccs4)ccc23)c(C)c1`: the inhibition is -13.9%.

Regarding `CC(=O)c1ccc(NC(=O)CC2Nc3cc(C)c(C)cc3NC2=O)cc1` (stereo unspecified), the inhibition turned out to be 7.58%.

As for `Cc1ccccc1C(=O)NNc1ncnc2c1cnn2-c1cccc(Cl)c1`, the inhibition was -19.8%.

In the case of `O=C(COc1ccccc1F)NC1CCN(Cc2ccccc2)CC1`, the inhibition was active: 48.4%.

Regarding `CCOc1cc(CNC(=O)Cn2ncn3c(cc4cc(F)ccc43)c2=O)cc(OCC)c1OCC`, the inhibition is 4.32%.

On to `CCCc1ccc(NC(=O)C2CCCN(c3cnccn3)C2)cc1` (stereo unspecified), for which the inhibition was -26.5%.

For `CCOc1ccc(Nc2nc(C)c(NC(=O)c3cccc(F)c3)c(Nc3ccc(OCC)cc3)n2)cc1`, the inhibition was -12.4%.

In the case of `COc1cccc(-c2oc3ccc(C)cc3c(=O)c2O)c1`, the inhibition was -7.24%.

Regarding `CCC1Oc2ccc(C)cc2N(CC(=O)N2CCN(c3ccccc3OC)CC2)C1=O` (stereo unspecified), the inhibition was -1.43%.

Take `Cc1noc(C)c1S(=O)(=O)N(CC(=O)NCCc1ccc(Cl)cc1)c1ccc(C(C)C)cc1`: the inhibition stood at 12.7%.

Regarding `CCOc1ccc(CNC(=O)CN2N=C(c3ccccc3)CCC2=O)cc1OC`, the inhibition is 10.6%.

`CCc1ccc(C2C(C(=O)Nc3ccccc3OC)=C(C)Nc3nc(SCc4ccccc4)nn32)cc1` (stereo unspecified): the inhibition was 9.63%.

On to `Cc1ccc(-n2ncc(C(=O)NCCN3CCN(C)CC3)c2C2CCN(C(=O)OC(C)(C)C)CC2)cc1`, for which the inhibition is -4.23%.

As to `O=C(CSc1nc(N2CCOCC2)nc(N2CCOCC2)n1)Nc1ccc(Cl)cc1Cl`, the inhibition is active: 33.1%.

Consider `Cc1nc(C)c(-c2ccc(SCC(=O)Nc3cccc(C)c3C)nn2)s1`, for which the inhibition is 4.13%.

As for `Cn1c(C(=O)NCCc2ccccc2)cc2sc(Cl)cc21`, the inhibition was determined as 12.9%.

For the molecule `Cc1ccc(CNC(=O)CSc2nc3ccsc3c(=O)n2-c2ccc(Br)cc2)cc1`, the inhibition amounted to 6.88%.

Regarding `CCOCCCn1c(SCC(=O)Nc2ccc(CC)cc2)nc2ccccc2c1=O`, the inhibition is -20.9%.

Regarding `CN1CCN(c2cc(-c3ccccc3)nc3cc(-c4ccc(F)cc4)nn23)CC1`, the inhibition was active: 54.3%.

Regarding `COc1cc(NC(=O)Cn2ccc3ccccc3c2=O)cc(OC)c1OC`, the inhibition turned out to be 2.72%.

Consider `COc1ccc(C(=O)N(Cc2sccc2C)C2CCS(=O)(=O)C2)cc1` (stereo unspecified), for which the inhibition was -5.26% and active: 37.8%.

With `O=S(=O)(c1ccc(-c2csc(=Nc3ccc(F)cc3)n2CCCCCCO)cc1)N1CCCC1`, the inhibition was -17.6%.

On to `CCCc1nnc(NC(=O)Cc2coc3c(C)c(C)ccc23)s1`, for which the inhibition is -6.4%.

For the molecule `COc1ccc(-c2c(C)[nH]n3c(=O)c(Cc4ccccc4)c(C)nc23)cc1OC`, the inhibition was active: 34.9%.

Turning to `Cc1ccc(Cl)cc1N1CCN(S(=O)(=O)c2ccc3c(c2)C(C(C)C)C(=O)N3)CC1` (stereo unspecified), the inhibition is -6.35%.

On to `O=C(Nc1ccc(Cl)cc1)c1ccc(-n2cnnc2)cc1`, for which the inhibition was -4.48%.

`O=C(COCc1cc(-c2cccs2)on1)NCc1ccc(F)cc1`: the inhibition is 6.56%.

For the molecule `CC(C)c1ccc(NC(=O)C2CCCN2S(=O)(=O)c2ccc3nc(-c4ccccc4)[nH]c3c2)cc1` (stereo unspecified), the inhibition is 9.28%.

As to `CCc1cc(=O)[nH]c(SCc2nc(-c3cccc(Cl)c3)no2)n1`, the inhibition is -9.83%.

As for `Cc1ccc(-n2ncc3c(N4CCN(Cc5ccccc5)CC4)ncnc32)cc1Cl`, the inhibition was -8.64%.

With `Cc1ccc(Nc2c(-c3cccnc3)nc3ccc(Cl)cn23)cc1`, the inhibition was -12.4%.

Turning to `CC(NC(=O)CN(C)CC(=O)Nc1ccc(F)c(F)c1F)c1ccccc1` (stereo unspecified), the inhibition is active: 49.4%.

Take `CCOc1ccccc1N1CCN(Cc2ccc(OC)c(OC)c2)CC1`: the inhibition is active: 94.4%.

For the molecule `COc1ccc2cc(CCNS(=O)(=O)c3ccc(C)cc3)c(=O)[nH]c2c1`, the inhibition is -0.402%.

For the molecule `CCOC(=O)C1CCN(C(=O)c2c(C)nn(-c3ccc(F)cc3)c2-n2cccc2)CC1`, the inhibition is -5.65%.

For `OC(COc1cccc2ccccc12)CN1CCN(c2ccccc2)CC1` (stereo unspecified), the inhibition is active: 65%.

On to `CCC(C)NC(=O)Cn1c(=O)n(-c2ccc(OC)c(OC)c2)c(=O)c2ccccc21` (stereo unspecified), for which the inhibition stood at 16.4%.

As to `CCCc1cc(=O)oc2c(C)c3c(cc12)CN(CCc1ccc(Cl)cc1)CO3`, the inhibition was 1.43%.

On to `Cc1ccc2oc(-c3cc(NC(=O)CC(C)C)ccc3Cl)nc2c1`, for which the inhibition amounted to 7.55%.

Turning to `Cc1ccc2c(c1)Cc1c(nc(-c3ccc(F)cc3)nc1SCC(=O)N1CCCCC1)O2`, the inhibition is -5.8%.

In the case of `CCS(=O)(=O)c1ccc2oc(Nc3ccc(OC)cc3)nc2c1`, the inhibition is active: 34%.

`CCOC(=O)c1c(C)[nH]c(C)c1S(=O)(=O)N1CCCC(C(=O)NCc2ccccc2Cl)C1` (stereo unspecified): the inhibition is -4.01%.

As for `COc1ccccc1CNC(=O)CN(c1ccccc1OC)S(C)(=O)=O`, the inhibition stood at 5.81%.

In the case of `COc1ccc(C(=O)Nc2nnc(S(=O)(=O)N(C)c3ccc(C)cc3)s2)cc1`, the inhibition is 13.8%.

Consider `COc1ccc(C(=O)Nc2nnc(S(=O)(=O)N3CCN(c4ccc(F)cc4)CC3)s2)cc1`, for which the inhibition was -19.4%.

`CCc1ccccc1Nc1ncnc2c1cnn2-c1ccc(C)cc1C`: the inhibition was found to be 25.7%.

On to `COc1cccc(CNC(=O)c2cc3c(=O)n(Cc4cccnc4)ccc3nc2C)c1`, for which the inhibition was -2.79%.

As to `Cc1ccc(NC(=O)CSc2nc3c(sc4ccccc43)c(=O)n2CCCC(=O)NC2CCCC2)cc1C`, the inhibition is -3.78%.

Turning to `CC(C)COc1ccc(C(=O)Nc2nnc(S(=O)(=O)N(C)Cc3ccco3)s2)cc1`, the inhibition is -22%.

For the molecule `CCc1cccc(NC(c2ccccc2)c2nnc(-c3ccccc3F)o2)c1` (stereo unspecified), the inhibition is -25.9%.

Regarding `CCOc1ccc(Br)cc1S(=O)(=O)N1CCC(C(=O)O)CC1`, the inhibition is active: 39.3%.

In the case of `CCOc1cc(CNC(=O)NC2COc3ccccc3C2)cc(OCC)c1OCC` (stereo unspecified), the inhibition came out at 8.38%.

For `COc1ccc(OC)c(-c2csc(-c3c(N)c(C(=O)c4ccc(Cl)cc4)n4ccccc34)n2)c1`, the inhibition was -2.84%.

Consider `Cc1ccc(OCC(=O)Nc2nnc(SCc3cc(=O)n4cccc(C)c4n3)s2)cc1`, for which the inhibition amounted to 7.53%.

In the case of `CC(C)c1ccc(NC(=O)c2cnc3sc(N4CCCC4)nn3c2=O)cc1`, the inhibition stood at 10.9%.
